From PubChem BioAssay AID624418 (National Center for Advancing Translational Sciences (NCATS), 2012)
Among all 410,000 compounds or so, about 530 (0.13%) were called active. Inconclusive means that the source gave no clear call. Such entries were picked first, then a sample of the others. Calls follow the shape of the dose curve; as a rule, active = well fitted inhibition curve with a large enough effect; inconclusive = small, poorly fitted or top-dose-only effect, or another doubt; inactive = no such curve, though single readings can be large or run the other way. Where the call is inconclusive, the potency comes from a doubtful curve fit.

Assay: qHTS of GLP-1 Receptor Inverse Agonists: Cytotox Screen
Details: HEK293 cAMP-luciferase reporter cells, luminescence, 24 h; activity change, negative = inhibition: at 38.3 µM (top of the series) unless noted
Summary of the method: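 Cells in DMEM/10% Nu serum/1% pen-strep, 1536-well format. Pre-incubated 12 h, dosed with 23 nL compound, incubated a further 24 h. Luciferase detection, 12 min at room temp, luminescence.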
% is scaled to controls: 0 for no effect and ±100 for the full control effect; potency is read from the fitted curve at half-maximal effect.

SMILES	activity change, negative = inhibition	Potency
COC(=O)[C@@H]1[C@@H](C(=O)OC)C2(c3ccccc3-c3ccccc32)N(c2ccc(Cl)cc2)N1C#N	inactive: -11.2%	–
CC(C)COP(=O)(OCC(C)C)C(Nc1ccccc1)c1ccccc1 (configuration not stated)	–	inconclusive: 6.31 µM [inhibitor, partial curve, poor fit]
Cc1ccc(-n2sc3ccccc3c2=O)cc1	–	active: 10 µM
COC(=O)C1=C(c2ccc(OCc3ccccc3)cc2)C[C@@H]2CC[C@H]1N2C(=O)NCc1ccc2[nH]ccc2c1	–	inconclusive: 0.562 µM [inhibitor, full curve, poor fit]
O=[N+]([O-])c1ccc(N2CCCCCC2)c2nonc12	–	inconclusive: 11.2 µM [inhibitor, partial curve]
Cc1cc(N2CCN(C)CC2)nc2ccc(NC(=O)c3ccc(C(C)(C)C)cc3)cc12	–	inconclusive: 14.1 µM [inhibitor, single point]
Cc1cc(C)nc(Sc2nc(Nc3ccccc3)nc(Sc3nc(C)cc(C)n3)n2)n1	–	inconclusive: 12.6 µM [inhibitor, partial curve, poor fit]
CCCCCCCCCn1c2c(c(=N)c3c1CCC3)CCCC2	–	inconclusive: 10 µM [inhibitor, partial curve, poor fit]
CCOC(=O)[C@]12Cc3cc(C)ccc3[C@H]1N(C1CCCCC1)C(=O)c1cc(OC)ccc12	–	inconclusive: 5.01 µM [inhibitor, partial curve]
Cc1[nH]nc(-c2ccc(OCc3cnn(-c4ccccc4)c3)c(C)c2O)c1Oc1ccccc1	–	inconclusive: 28.2 µM [inhibitor, single point]
Cc1ccc(CN2C(=O)CN=C(c3ccccc3)c3ccccc32)cc1	–	inconclusive: 12.6 µM [inhibitor, partial curve, poor fit]
COc1cccc(N2C(=O)NC(=O)/C(=C\c3ccc([N+](=O)[O-])s3)C2=O)c1	–	inconclusive: 11.2 µM [inhibitor, single point]
CCOc1cc2c(cc1OCC)-n1cccc1C(c1ccc(C(C)C)cc1)NC2 (configuration not stated)	–	inconclusive: 31.6 µM [inhibitor, single point]
COC(=O)c1cc(=O)n(-c2ccc(F)cc2)c(=Nc2ccc(F)cc2)s1	–	inconclusive: 22.4 µM [inhibitor, single point]
CCOC(=O)[C@]12Cc3cc(Cl)ccc3[C@H]1N(C1CCCCC1)C(=O)c1cc(OC)ccc12	–	inconclusive: 5.62 µM [inhibitor, partial curve, poor fit]
CN(C(=O)CNC(=O)OCc1ccccc1)c1ccc(Br)cc1C(=O)c1ccccc1Cl	–	inconclusive: 1.78 µM [inhibitor, full curve, poor fit]
Cc1[nH]c2c(C(F)(F)F)cccc2c1CCN	–	inconclusive: 11.2 µM [inhibitor, partial curve, poor fit]
CS(=O)(=O)c1ccc(C(=O)OCC(=O)NCc2cccs2)cc1[N+](=O)[O-]	–	inconclusive: 22.4 µM [inhibitor, single point]
CC(C)Cn1cnc2c(c(-c3ccccc3)c(-c3ccccc3)n2Cc2ccco2)c1=N	–	inconclusive: 10 µM [inhibitor, partial curve, poor fit]

SMILES	activity change, negative = inhibition	Potency
O=[N+]([O-])c1cccnc1N1CCC(c2cc(-c3cccc(C(F)(F)F)c3)n[nH]2)CC1	–	inconclusive: 11.2 µM [inhibitor, single point]
CCc1nc2ccccc2c(=O)n1-c1cccc(OC)c1	–	inconclusive: 20 µM [inhibitor, partial curve, poor fit]
CN(c1ccccc1)c1ccc([N+](=O)[O-])c2nonc12	–	inconclusive: 11.2 µM [inhibitor, single point]
CN1CCN(c2ccc(N)cc2)CC1	inactive: -22.1%	–
COC1CC2C=C(C)C=CC=CC(=O)NC(c3ccccc3)CC=CCCC(O)CC(=O)C2=C1O (configuration not stated)	–	inconclusive: 10 µM [inhibitor, partial curve]
COC(=O)C1=C(c2ccccc2OCc2ccccc2)C[C@@H]2CC[C@H]1N2C(=O)NCc1ccc(N(C)C)cc1	inactive: 4.02%	–
CCC(C)[C@H]1CN=C(N)N1CCc1cc(C(F)(F)F)cc(C(F)(F)F)c1 (some centres not stated)	–	inconclusive: 11.2 µM [inhibitor, partial curve, poor fit]
CCOc1ccc2[nH]c(=O)c(CN(Cc3ccc(F)cc3)C(=O)c3ccco3)cc2c1	–	inconclusive: 10 µM [inhibitor, partial curve, poor fit]
COC(=O)C1=C(c2ccc(C(C)=O)cc2)C[C@@H]2CC[C@H]1N2C(=O)N1CCC(C)CC1	–	inconclusive: 28.2 µM [inhibitor, single point]
Cc1cccc(N=Nc2ccc(N(C)C)cc2)c1	–	inconclusive: 12.6 µM [inhibitor, partial curve]
Cc1ccc(-c2csc(-c3c[nH]c4ccccc34)n2)c(C)c1	–	inconclusive: 11.2 µM [inhibitor, single point]
CCOc1c(Cl)cc(CNCCc2c[nH]c3ccccc23)cc1OC	–	inconclusive: 14.1 µM [inhibitor, single point]
O=C1NC(=O)N(Cc2ccccc2)C(=O)/C1=C\C=C\c1ccco1	–	inconclusive: 22.4 µM [inhibitor, single point]
CCCn1nnnc1NC(=O)c1ccc2ccccc2c1	–	inconclusive: 14.1 µM [inhibitor, single point]
O=C1C2(Cl)C3(Cl)C4(Cl)C(Cl)(Cl)C5(Cl)C3(Cl)C1(Cl)C5(Cl)C24Cl (configuration not stated)	–	inconclusive: 28.2 µM [inhibitor, single point]
Clc1ccc(C[n+]2c(-c3ccccc3)cc(-c3ccccc3)cc2-c2ccccc2)cc1	–	inconclusive: 10 µM [inhibitor, partial curve, poor fit]
COc1ccc(/C=C2/SC(=S)N(CCCC(=O)N3CCN(C)CC3)C2=O)cc1	–	inconclusive: 10 µM [inhibitor, partial curve, poor fit]
CCCCCCCCCCCCCCCC[n+]1ccc(/C=N/O)cc1	–	inconclusive: 10 µM [inhibitor, partial curve, poor fit]
